# From PMC4336329 (PLoS ONE, 2015)
# The campaign covered roughly 310,000 compounds. About 2,200 (0.71%) showed an effect of 50% or more. Effects have a minus sign here. The list shows a part of the results.
# Target: human ether-à-go-go-related gene (hERG) potassium channel (human, UniProt Q12809)
# Experiment: primary screen, population patch clamp on CHO cells stably expressing hERG
# human ether-à-go-go-related gene (hERG) potassium channel, sequence (Q12809 whole entry, looked up): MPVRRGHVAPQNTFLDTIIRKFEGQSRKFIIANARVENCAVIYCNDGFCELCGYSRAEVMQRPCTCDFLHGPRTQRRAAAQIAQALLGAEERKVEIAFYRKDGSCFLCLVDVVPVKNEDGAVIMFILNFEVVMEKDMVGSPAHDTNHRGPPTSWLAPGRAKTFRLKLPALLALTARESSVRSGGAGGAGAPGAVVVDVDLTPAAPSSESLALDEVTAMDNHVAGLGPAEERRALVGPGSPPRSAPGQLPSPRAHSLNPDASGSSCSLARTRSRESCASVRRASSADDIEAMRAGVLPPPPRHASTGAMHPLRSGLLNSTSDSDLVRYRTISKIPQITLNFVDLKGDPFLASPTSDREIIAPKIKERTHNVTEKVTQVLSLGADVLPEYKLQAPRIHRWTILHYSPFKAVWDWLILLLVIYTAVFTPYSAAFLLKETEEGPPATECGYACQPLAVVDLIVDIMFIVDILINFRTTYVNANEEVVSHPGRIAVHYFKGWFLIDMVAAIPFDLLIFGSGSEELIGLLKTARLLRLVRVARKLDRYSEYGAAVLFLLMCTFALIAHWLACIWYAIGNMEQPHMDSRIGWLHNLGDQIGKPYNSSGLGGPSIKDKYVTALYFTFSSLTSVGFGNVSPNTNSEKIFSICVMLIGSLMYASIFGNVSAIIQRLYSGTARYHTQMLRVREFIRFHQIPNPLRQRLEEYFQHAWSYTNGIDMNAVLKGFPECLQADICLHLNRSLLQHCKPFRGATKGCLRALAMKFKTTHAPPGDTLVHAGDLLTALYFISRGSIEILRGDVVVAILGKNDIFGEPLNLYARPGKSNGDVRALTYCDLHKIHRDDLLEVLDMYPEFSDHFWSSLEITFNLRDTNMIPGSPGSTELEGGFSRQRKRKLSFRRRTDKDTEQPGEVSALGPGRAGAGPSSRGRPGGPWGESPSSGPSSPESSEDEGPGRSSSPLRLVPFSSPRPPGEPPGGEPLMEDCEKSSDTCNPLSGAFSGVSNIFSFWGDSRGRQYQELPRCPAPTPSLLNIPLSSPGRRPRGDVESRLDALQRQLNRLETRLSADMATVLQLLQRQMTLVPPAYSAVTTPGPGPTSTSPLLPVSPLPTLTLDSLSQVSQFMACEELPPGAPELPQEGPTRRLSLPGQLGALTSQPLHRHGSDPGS
row,SMILES,"hERG current change (%, negative = inhibition) at 1uM [%]"
1,O=C(Nc1c2c(nn1-c1ccccc1)CS(=O)(=O)C2)c1cccs1,12
2,O=S(=O)(NCc1cccs1)c1ccc(Br)cc1,17.4
3,Cc1cc(S(=O)(=O)N(Cc2ccccc2F)C2CC2)ccc1-n1cnnn1,-7.13
4,COc1ccc(OC)c2sc(NC(=O)c3cccc(N4C(=O)CCC4=O)c3)nc12,2.94
5,COc1ccc(N(CC(=O)NC2CCCCC2)C(=O)CCCC(=O)Nc2ccccn2)cc1,-17.3
6,Cc1ccc(-c2cc(Cc3cccs3)c(=O)[nH]n2)cc1,10.1
7,Cc1cccc(NC(=S)NCc2ccc(F)cc2)c1,5.98
8,O=C(CSc1ccc(-c2ccc(F)cc2)nn1)N1CCCCC1,-8.39
9,O=C1N=C2SCCN2/C1=C\c1ccc(Cl)cc1,-5.66
10,COc1cccc(C2(c3cccc(OC)c3)CC2C(=O)Nc2ccc(F)cc2)c1 (stereo not drawn),1.06
11,COc1cc2c(cc1OC)CN(C(=O)COc1ccccc1C#N)CC2,15.1
12,C1CCCN(CCCCN2CCCCCC2)CC1.Cl,-1.27
13,CCC1CSC(Nc2ccc(C(=O)/C=C/c3cccc(C)c3)cc2)=N1 (stereo not drawn),14
14,O=C(c1cccs1)N1CCN(c2nc3ccc([N+](=O)[O-])cc3s2)CC1,15.6
15,COc1ccc(C(=O)CSc2nnc3ccccn23)cc1OC,14.3
16,CCCCCCCCOc1ccc(C(=O)O)cc1,17.2
17,CC1(C)OC(=O)C2(Cc3ccccc3N3CCCCC32)C(=O)O1 (stereo not drawn),0.285
18,O=C1C(O)=C(O)C(=O)c2ccccc21,2.37
19,CCOC(=O)C1C(=O)N(C)C2(C)CC1c1ccccc1O2 (stereo not drawn),14.6
20,CCOc1ccccc1N1CC(C(=O)N2CCc3ccccc32)CC1=O (stereo not drawn),5.44
21,CCOC(=O)c1c(NC(=O)C2CC=CCC2C(=O)O)sc(C)c1CC (stereo not drawn),6.24
22,Nc1c(C(=O)c2ccccc2)oc2ccc([N+](=O)[O-])cc12,5.62
23,CCN(CC)Cc1cc(C(C)=O)ccc1OCC(C)C,-1.39

row,SMILES,"hERG current change (%, negative = inhibition) at 1uM [%]"
1,Cc1ccc(NC(=O)c2cc(CC(C)C)nc3ccccc23)cc1,13.6
2,O=C(NCCC1CCCCN1S(=O)(=O)c1ccc(F)cc1)C(=O)NCc1ccccn1 (stereo not drawn),3.48
3,CC(C)NC(=O)c1ccccc1NC(=O)CN(c1ccc2c(c1)OCO2)S(C)(=O)=O,15.4
4,CN(C)C=O.O=C1CN(C(=O)CN2C(=O)NC3(CCCCC3)C2=O)c2ccccc2N1,30.2
5,Cc1ccccc1NC(=O)N1CCC(C(=O)c2ccc(F)cc2)CC1,17.6
6,O=C(Cn1ncc2c3ccccc3n(Cc3ccccc3F)c2c1=O)NC1CC1,12.4
7,Cc1noc(C)c1COc1ccc(C(=O)OCC(=O)N2CC(=O)Nc3ccccc32)cc1,9.32
8,CC(Sc1ncnc2sc(-c3ccccc3)cc12)C(=O)NCC1CCCO1 (stereo not drawn),-4.48
9,COc1ccc(N2CCN(C(=O)COC(=O)c3c(-c4ccccc4)noc3C)CC2)cc1,7.6
10,COC(=O)c1sc2nc(CN3CCN(c4cccc(C(F)(F)F)c4)CC3)[nH]c(=O)c2c1C,9.95
11,CCOc1ccc(OCCn2c(S(=O)(=O)O)nc3c(N)ncnc32)cc1,11.5
12,COc1ccc(NC(=O)c2ccc(N3CCOCC3)nc2)cc1,9.13
13,O=C(CN1C(=O)S/C(=C\C=C\c2ccccc2)C1=O)NC1CCS(=O)(=O)C1 (stereo not drawn),17.8
14,Cc1c(C(=O)NCC2CCCO2)oc2ccc(S(=O)(=O)N3CCCCC3)cc12 (stereo not drawn),1.11
15,CCOC(=O)c1c(/N=C/C2=C(O)CCCC2=O)sc2c1CCCC2,12.5
16,CCc1nc(C)cn1S(=O)(=O)c1cc([N+](=O)[O-])ccc1Cl,15.8
17,CC1CCN(C(=S)c2ccc([N+](=O)[O-])cc2)CC1,1.08
18,CN(CC(=O)Nc1ccc(N2CCOCC2)cc1)C(=O)CCc1cc(C(C)(C)C)c(O)c(C(C)(C)C)c1,-2.49
19,Cc1cc(C)cc(C(=O)O/N=C(\N)c2ccc(Br)cc2)c1,4.51
20,O=C(NC(=S)N1CCN(c2ccccc2)CC1)c1c(F)cccc1F,21.9
21,O=C1CN(CC(=O)Nc2ccc(Cl)cc2)CCN1,5.39
22,O=C(C1CCCO1)N1CCN(C(=S)Nc2ccccc2C(F)(F)F)CC1 (stereo not drawn),4.24
23,CC(C)OCCCNc1ncnc2c1[nH]c1ccccc12,8.11

row,SMILES,"hERG current change (%, negative = inhibition) at 1uM [%]"
1,COc1ccc(CNC(=O)c2cccc(C)c2[N+](=O)[O-])cc1,14.6
2,O=C(CSc1nnc(-c2ccc(S(=O)(=O)N3CCCC3)cc2)o1)NCc1ccccc1,15.2
3,CS(=O)(=O)c1ccc(C(=O)Nc2ccc(N3CCOCC3)cc2)c(Cl)c1,9.5
4,COc1ccc(S(=O)(=O)N2CCC(C(=O)Nc3cccc(Cl)c3)CC2)cc1OC,5.95
5,Cn1cnc2c1c(=O)n(Cc1cccc(Cl)c1)c(=O)n2C,11
6,O=[N+]([O-])c1cccc(-c2cc3cccc[n+]3cc2-c2cccc([N+](=O)[O-])c2)c1.[Cl-],-3.23
7,COc1ccc(Cl)cc1C(=O)Nc1ccccc1N1CCN(C(=O)C(C)C)CC1,-19.6
8,Cn1ccnc1Sc1ccc(/C=N/NC(=O)c2ccccc2[N+](=O)[O-])cc1[N+](=O)[O-],-6.08
9,CSCCC(NC(=O)c1ccccc1Cl)C(=O)N1CCN(C(c2ccccc2)c2ccccc2)CC1 (stereo not drawn),8.16
10,COc1ccc(CCNC(=O)CSc2ccc3nnc(CCNC(=O)c4ccccc4)n3n2)cc1OC,10.7
11,CCOc1ccc(CN2CCN(Cc3cnc(N4CCOCC4)s3)CC2CCO)cc1 (stereo not drawn),-19.2
12,COc1cccc(-c2nc(N3CCCCC3C)c3ccccc3n2)c1O (stereo not drawn),16.7
13,COc1ccccc1OCCCCCNCCO,6.02
14,COc1ccccc1NS(=O)(=O)c1ccc(C(N)=O)cc1,14.9
15,C=C(C)c1cccc(C(C)(C)NC(=O)N2CCN(C/C=C/c3ccccc3)CC2)c1,-4.33
16,Cc1cc(Nc2ccc(F)cc2Cl)n2ncnc2n1,5.93
17,CCC1CCCCN1C(=O)CSc1nc2c(cnn2-c2ccc(C)cc2)c(=O)[nH]1 (stereo not drawn),19.8
18,CCCOP(=O)(OCCC)C1(Nc2ccc(C)cc2)CCCCC1,7.69
19,COc1ccc(S(=O)(=O)N(CC(=O)NN=C2CCN(C)CC2)c2ccc(C)cc2)cc1OC,12.5
20,Cc1ccc(OCC(O)Cn2c(=N)n(CCN3CCCCC3)c3ccccc32)cc1.Cl (stereo not drawn),-30.1
21,COc1ccc(N2CC(C(=O)Nc3nnc(SCC(=O)N4CCOCC4)s3)CC2=O)cc1 (stereo not drawn),9.08
22,O=C1CC(NNc2ccccc2)C(=O)N1c1cccc(Cl)c1 (stereo not drawn),24.5
23,O=C(COc1ccc(S(=O)(=O)N2CCCC2)cc1)NCC1CCCO1 (stereo not drawn),17.9

row,SMILES,"hERG current change (%, negative = inhibition) at 1uM [%]"
1,COn1c(SC(C)C)nc2ccccc2c1=O,-2.81
2,O=C(NC1CC(=O)N(c2cccc(F)c2)C1)N1CCN(C(=O)c2ccco2)CC1 (stereo not drawn),2.41
3,Cc1cc(NC(=O)CCSc2ccccc2)no1,14.2
4,CCCCn1c(SCc2nc3ccccc3s2)nc2ccccc2c1=O,-7.77
5,CCCC(C)C(=O)Nc1nc(C)c(-c2csc(Nc3ccccc3OC)n2)s1 (stereo not drawn),15.2
6,CCOC(=O)C(C(=O)OCC)C(C[N+](=O)[O-])c1ccccc1 (stereo not drawn),15.6
7,Cc1ccc2c(c1)sc(=NC(=O)C1CC1)n2C,11.3
8,Cc1ccc(CNS(=O)(=O)c2cc3c4c(c2)C(C)C(=O)N4CCC3)cc1 (stereo not drawn),5.3
9,Cc1ccc(S(=O)(=O)N/N=C/c2cc(Br)c(C)o2)cc1,8.23
10,CCCCCCCCCC(=O)N/N=C(\C)c1cccnc1,8.34
11,COc1ccccc1CNC(=O)C1CCCC1,16.1
12,c1ccc(CCNCCCOc2cccc3ccccc23)cc1,9.09
13,O=C(NCCN1CCOCC1)c1c(F)c(F)c(F)c(F)c1F,13.8
14,CN(C(=S)NC(=O)C1CC1)c1ccc(O)cc1,1.38
15,CS(=O)(=O)Nc1ccc(-c2cc(/C=C3\SC(N)=NC3=O)c[nH]c2=O)cc1,11.3
16,Cc1ccc(NC(=O)CCn2c(=O)[nH]c3ccsc3c2=O)cc1F,10.7
17,Cc1nc(-c2ccc(C#N)cc2)cs1,6.32
18,Cc1ccccc1C(=O)Nc1ccccc1Sc1ccccc1,13.8
19,CC1CCCC(C)N1C(=O)COC(=O)C12CC3CC(CC(Cl)(C3)C1)C2 (stereo not drawn),4.8
20,c1ccc2oc(SCc3cn4ccccc4n3)nc2c1,-12.5
21,O=C(Cc1cc2ccccc2o1)NCc1ccc(F)cc1,13.7
